Laboratory results: PubChem BioAssay AID1745853 (National Center for Advancing Translational Sciences (NCATS), 2022)
This is one part of the list. The main result of the screen is listed elsewhere. These columns were measured beside it and carry no call.

Experiments:
Assay in all cases: Primary Screen for Target Class Profiling of Small Molecule Inhibitors of Methyltransferases
[1] = target: Glycine N-methyltransferase (Homo sapiens) (UniProt Q14749); conditions: purified enzyme, MTase-Glo SAH luminescence; measured here: GNMT inhibition; at 40 µM; stronger effect = lower value
Text: (§1) PI: Matthew D. Hall Ph.D. and Quinlin M. Hanson Ph.D.
(§2) National Center for Advancing Translational Sciences (NCATS)
(§3) National Institute of Health (NIH), Rockville, MD
(§4) Target class profiling (TCP) is a chemical biology approach amenable to investigating understudied biological targets. TCP is achieved by developing a generalizable assay platform and applying it to screen a curated set of compound libraries against representative members of a target class. Small molecule methyltransferases (SMMTase) are a subclass of methyltransferase that act on metabolites to modulate signaling pathways, metabolize xenobiotics, or balance the available methyl pool. We screened four curated libraries totaling 27,574 unique compounds against the SMMTases nicotinamide N-methyltransferase (NNMT), phenylethanolamine N-methyltransferase (PNMT), histamine N-methyltransferase (HNMT), glycine N-methyltransferase (GNMT), catechol O-methyltransferase (COMT), and guanidinoacetate N-methyltransferase (GAMT). The data generated by this TCP can be leveraged for informed tool molecule development. For example, in the associated publication we identified a chemotype of HNMT-selective inhibitors. Additionally, we identified a putative SMMTase-selective inhibitor with potential as a tool molecule for studying broader methyltransferase biology.
(§5) High-through put screening assays were developed at the National Center for Advancing Translational Science (NCATS) for the enzymes NNMT, PNMT, HNMT, GNMT, COMT, and GAMT. Enzymatic activity was measured as a function of SAM cofactor conversion using the MTase Glo kit (Promega) for all enzymes. All assays were performed in 1536-well format with substrates and SAM concentrations at KM values. Enzyme concentration and assay timing were optimized for 10-20% SAM conversion. Initial screening of 27,574 compounds was done as single-point assays using the highest compound concentration (40 uM). […] These compounds were replated in 11-point dose response and assayed against NNMT, PNMT, HNMT, GNMT, COMT, GAMT, and a counter-assay. The IC50 and efficacy (maximal response) values were determined for each dose-response curve. These values are also accounted for in the area under the curve (AUC) values.
(§6) PROTOCOL TABLE (as described by Inglese J, Shamu CE and Guy RK. 2007)
(§7) SEQUENCE No. (e.g., 1, 2, 3, etc.); […] (e.g., Cells, Incubation, Reagent, etc.); VALUE; DESCRIPTION.
(§8) 1; Reagent; 2 uL; SMMTase Enzyme (2x) in reaction buffer, columns 1- 48.
(§9) 2; Reagent; 1 uL; SAM (4x) in reaction buffer, columns 1-48.
(§10) 3; Controls; 23 nL; DMSO in column 4; sinefungin in DMSO (0 uM - 40 uM) in 7-point 1:2 dilution series (n = 2) in column 2.
(§11) 4; Compounds; 23 nL; Columns 5-48.
(§12) 5; Reagent; 1 uL; Substrate (4x) in reaction buffer, columns 2-48.
(§13) 6; Time; 20-30 min; Incubation.
(§14) 7; Reagent; 1 uL; MTase-Glo reagent (5X), columns 1-48.
(§15) 8; Time; 30 min; Incubation.
(§16) 9; Reagent; 5 uL; MTase-Glo Detection reagent, columns 1-48.
(§17) 10; Time; 30 min; Incubation, luminescence evolution.
(§18) 11; Detection; Luminescence; ViewLux uHTS Microplate Imager (PerkinElmer).
(§19) NOTES (numbers refer to Sequence numbers above)
(§20) 1, 2, 5. White Medium Binding Greiner 1536-well plates (Cat #789175-F, Greiner Bio-One, Monroe, NC); Reaction buffer: 50 mM Tris, pH 8.0, 3 mM MgCl2, 1 mM EDTA, 50 mM NaCl, 1 mM DTT, and 0.1 mg/mL BSA. Evaporation was prevented by covering assay plates with metal lids containing holes to allow gas diffusion.
(§21) 1. Six SMMTase were profiled: HNMT, GNMT, PNMT, COMT, NNMT, GAMT
(§22) 5. The corresponding substrate was used for each enzyme: HNMT - 5.3 uM Histamine; GNMT - >500 uM Glycine; PNMT - 16.2 uM Norephinephrine; COMT - 13.7 uM Norephinephrine; NNMT - 3.8 uM Nicotinamide; GAMT - 2.5 uM Guanidinoacetate.6, 8, 10. Room temperature
(§23) 6. Final reaction conditions: 10 nM COMT, 5 uM SAM, 15 uM norepinephrine, 50 mM Tris, pH 8.0, 3 mM MgCl2, 1 mM EDTA, 50 mM NaCl, 1 mM DTT, and 0.1 mg/mL BSA; refer to tables 2 and S1 for specific timing.
8. […]

[2] = target: Guanidinoacetate N-methyltransferase (Homo sapiens) (UniProt Q14353); conditions: purified enzyme, MTase-Glo SAH luminescence; measured here: GAMT inhibition; at 40 µM; stronger effect = lower value
Text: as §1, §2, §3, §4, §5, §6, §7, §8, §9, §10, §11, §12, §13, §14, §15, §16, §17, §18, §19, §20, §21, §22, §23
8. […]

[3] = target: Histamine N-methyltransferase (Homo sapiens) (UniProt P50135); conditions: purified enzyme, MTase-Glo SAH luminescence; measured here: HNMT inhibition; at 40 µM; stronger effect = lower value
Text: as §1, §2, §3, §4, §5, §6, §7, §8, §9, §10, §11, §12, §13, §14, §15, §16, §17, §18, §19, §20, §21, §22, §23
8. […]

[4] = target: Nicotinamide N-methyltransferase (Homo sapiens) (UniProt P40261); conditions: purified enzyme, MTase-Glo SAH luminescence; measured here: NNMT inhibition; at 40 µM; stronger effect = lower value
Text: as §1, §2, §3, §4, §5, §6, §7, §8, §9, §10, §11, §12, §13, §14, §15, §16, §17, §18, §19, §20, §21, §22, §23
8. […]

[5] = target: Phenylethanolamine N-methyltransferase (Homo sapiens) (UniProt P11086); conditions: purified enzyme, MTase-Glo SAH luminescence; measured here: PNMT inhibition; at 40 µM; stronger effect = lower value
Text: as §1, §2, §3, §4, §5, §6, §7, §8, §9, §10, §11, §12, §13, §14, §15, §16, §17, §18, §19, §20, §21, §22, §23
8. […]
% is set by controls: 0 for no effect and ±100 for the full control effect.

Row | Compound | activity change, negative = inhibition [1] [%] | activity change, negative = inhibition [2] [%] | activity change, negative = inhibition [3] [%] | activity change, negative = inhibition [4] [%] | activity change, negative = inhibition [5] [%]
1 | COc1ccc(C)cc1NC(=O)N1CCCC1c1nncn1C1CCCC1 (stereo not given) | -7.59 | -14.3 | -5.09 | -13.3 | -6.1
2 | CCNC(=O)c1c(C)oc2c1CN(Cc1ccc(Br)o1)CC2 | -9.03 | -9.04 | -4.22 | -13.5 | -18.7
3 | Cc1ccc(NC(=O)N2Cc3c(sc4c3CCCC4)-n3cccc3C2c2cccc(F)c2)cc1 (stereo not given) | 1.6 | 1.68 | 9.27 | 8.52 | 8.32
4 | CCc1cnc(C2CCN(C(=O)OC(C)(C)C)CC2)[nH]1 | -5.43 | -10.3 | -7.51 | -19.1 | -2.53
5 | CCN1CCN(C(=O)CCC2CCN(S(=O)(=O)c3ccccc3)CC2)CC1 | -3.86 | -6.37 | -3.85 | -11.5 | -9.9
6 | COc1cccc(C(=O)N2CCC3(CC2)CCN(CCc2ccccc2)c2ccccc2O3)c1 | -0.341 | -0.848 | -0.65 | -5.89 | -2.41
7 | OC[C@@]1(O)CO[C@H](OC[C@H]2O[C@@H](OCCc3ccccc3)[C@H](O)[C@@H](O)[C@@H]2O)[C@@H]1O | 4.93 | 4.5 | 10 | -7.47 | 1.12
8 | Cc1cccc(N2CCN(CCCNC(=O)CCc3nnc4n(CC(C)C)c(=O)c5ccccc5n34)CC2C)c1 (stereo not given) | -4.35 | 1.81 | 5.31 | 14 | 2.88
9 | Cc1ccc(N2C(=O)c3cc(-c4ccco4)nn3CC2(C)C(=O)NC2CCCCCC2)c(C)c1 (stereo not given) | 0.309 | 4.49 | 3.07 | -0.211 | -0.543
10 | CC(C(=O)NCc1ccccc1)n1ccc2cc(S(=O)(=O)N3CCCC3)ccc21 (stereo not given) | 9.91 | 2.44 | 6.29 | 10.8 | 5.76
11 | CCCN1C(=O)c2c(C(=O)NCCC3=CCCCC3)ncn2CC1(C)C(=O)NCc1ccc(OC)cc1 (stereo not given) | -2.68 | 0 | 1.01 | -0.346 | 4.84
12 | CCC1c2ccc(C)n2CCN1C(=O)Nc1ccc(C)cc1C (stereo not given) | -7.34 | 4.27 | -4.49 | -4.73 | -4.53
13 | Cc1cc2c(cc1S(=O)(=O)N1CCN(c3cccc(C)c3C)CC1)n(C)c(=O)n2C | 1.9 | -0.632 | -1.85 | -6.38 | -3.91
14 | CC(C)CC(NC(=O)c1ccc(=O)[nH]c1)c1nnc2n1CCNCC2 (stereo not given) | -2 | 1.04 | 0.527 | 0.014 | 2.95
15 | C[C@@H]1O[C@@H](O[C@H]2[C@H](O[C@H]3[C@H](O[C@H]4CC[C@@]5(C)C(CC[C@]6(C)C5CC=C5[C@@H]7CC(C)(C)C[C@@H](O)[C@]7(C)CC[C@]56C)[C@@]4(C)CO)O[C@H](C(=O)O)[C@@H](O)[C@@H]3O)O[C@H](C(=O)O)[C@H](O)[C@@H]2O)[C@H](O)[C@H](O)[C@H]1O (stereo not given in full) | 0 | 10 | 9.6 | -6.71 | 1.01
16 | COc1ccc(-c2cc3n(n2)CC(C)(C(=O)NCc2ccccc2)N(Cc2ccc(SC)cc2)C3=O)cc1 (stereo not given) | 5.56 | 0.696 | 7.47 | 3.94 | 1.42
17 | O=C(Cn1nc2n(Cc3ccc(F)cc3)c(=O)c3ccccc3n2c1=O)Nc1ccc(F)cc1F | -3.51 | -0.295 | 3.83 | -7.8 | -3.84
18 | COCCn1c(C)cnc1CCNS(=O)(=O)c1c(C)noc1C | -2.75 | -2.36 | 0.302 | -4.26 | -7.21

Row | Compound | activity change, negative = inhibition [1] [%] | activity change, negative = inhibition [2] [%] | activity change, negative = inhibition [3] [%] | activity change, negative = inhibition [4] [%] | activity change, negative = inhibition [5] [%]
19 | CC(NC1CCC2(CCNCC2)CC1)c1nc(-c2ccccn2)no1 (stereo not given) | -2.97 | -0.015 | -5.67 | -5.12 | -0.47
20 | CCc1cccc(NC(=O)Cn2nc3n(C(C)C)c(=O)c4ccc(C(=O)NC5CCCC5)cc4n3c2=O)c1 | 4.03 | 0 | 6.6 | 3.71 | 2.89
21 | CC1(C(=O)NC2CCCCC2)Cn2nc(-c3cccs3)cc2C(=O)N1c1ccc(F)cc1F (stereo not given) | -2.07 | 3.98 | 3.27 | 4.84 | -2.47
22 | C=C1[C@H](OC(C)=O)[C@H]2[C@@H](OC(=O)c3ccccc3)[C@@H](C)C[C@]2(O)[C@@H](OC(C)=O)[C@H](C)/C=C/C(C)(C)C(=O)[C@H](OC(C)=O)[C@H]1OC(C)=O | 2.47 | 2.87 | 8.64 | -10.4 | 3.91
23 | COc1ccc(CCNC(=O)c2cc3n(n2)CC(C)(C(=O)NCCC(C)C)N(C)C3=O)cc1OC (stereo not given) | 2.4 | 0.51 | 9.42 | 8.4 | 5.2
24 | CNC(=O)c1cccn2nccc12 | -5.09 | -6.69 | -2.25 | -20.6 | 11.1
25 | CC1=NS(=O)(=O)c2cc(Cl)ccc2N1 | 5.73 | -1.54 | 9.07 | -7.14 | -1.71
26 | CN1C(=O)c2cc(C(=O)NCCC3=CCCCC3)nn2CC1(C)C(=O)NCc1ccccc1 (stereo not given) | -2.98 | -5.32 | 4.07 | -2.15 | -1.92
27 | COc1ccc(C(=O)N[C@H](Cc2ccccn2)C2CC(O)C2)cc1F (stereo not given in full) | 0.944 | 0.412 | 2.1 | -1.41 | 8.93
28 | C=CC(=O)Nc1cccc(Sc2nc(Nc3ccc(N4CCN(C)CC4)cc3)ncc2Cl)c1 | -38.5 | 12.8 | -13.3 | -29.1 | 4.94
29 | O=C(CCCCN1CCOCC1)Nc1ccc(-c2cccnc2)cc1 | -1.31 | -3.2 | -22.8 | -19.5 | -1.11
30 | CC(=O)O[C@H]1[C@H](O)C[C@@]2(C)C(CC[C@]3(C)C2CC=C2C4CC(C)(C)CC[C@]4(C(=O)O)CC[C@]23C)C1(C)C (stereo not given in full) | -7.51 | -14 | -2.03 | -22.2 | -14.9
31 | COc1cccc(CN2C(=O)c3cc4oc(C)cc4n3CC2(C)C(=O)NC2CCCCC2)c1OC (stereo not given) | 4.78 | 4.52 | 6.22 | 5.15 | 1.51
32 | CN1C(=O)CO[C@H]2CN(c3ccc(C#N)cn3)C[C@H]21 | -2.65 | -3.81 | -2.52 | -8.62 | -4.32
33 | COc1ccc(C(=O)N2C[C@@H]3C[C@H](C2)c2ccc(NS(=O)(=O)c4ccc(OC)cc4)c(=O)n2C3)cc1 | -2.58 | -4.45 | -0.79 | -11 | -3.43
34 | O=C1CC2(CCN([S+](=O)([O-])c3cccc(C(F)(F)F)c3)CC2)Oc2ccccc21 | -2.7 | -1.41 | 1.39 | -7.57 | -0.235
35 | CC(/C=C/C1=CC2=CC(=O)C(C)(O)C(O)C2=CO1)=C\C(C)CCO (stereo not given) | -1.12 | -2.17 | 6.52 | -14.4 | -5.48
36 | CCC1CC2C(C)=CC3CCCCC3C2(C)C2(OC(=O)C(C)(O)OC2=O)O1 (stereo not given) | 3.42 | 5.09 | 9.14 | -7.86 | 1.66
